This is an account of results in ChEMBL document CHEMBL4888484, “Replenishing the malaria drug discovery pipeline: Screening and hit evaluation of the MMV Hit Generation Library 1 (HGL1) against asexual blood stage Plasmodium falciparum ,using a nano luciferase reporter read-out” (2022).

In all, about 150,000 compounds went through this assay and about 540 (0.36%) showed an effect of 50% or more. The list shows a part of the results.

The test system of the assay is Plasmodium falciparum. As to the kind of experiment: Primary screen in NF54 nanoGlo assay, in single point, at 2uM, 72h; a lower Z score goes with more inhibition. Type of assay: functional, Erythrocyte. The settings on record: timepoint 72 hour.
What is called % Inhibition is the drop in the measured response relative to a control, in per cent. As to `CCCc1ccc(CN2CCC[C@@](O)(CN(C)C)C2)o1`, the “% Inhibition” value was -3% and the Z score was 0.53.
For `Cc1cc(CN2CCN(C(=O)c3ccc4[nH]ccc4c3)CC2)on1`, the “% Inhibition” value was -11% and the Z score worked out at 2.07.
Regarding `Cc1nnc(NC(=O)c2ccc(=O)n(Cc3ccc(Cl)cc3)c2)s1`, the “% Inhibition” value is given as -15% and the Z score is reported as 1.84.
On the same counts, the results for `C[C@H](NCC(C)(C)C(N)=O)c1ccccc1N(C)C` are -1% and 0.13.
For `O=C(CNC1(c2ccc(F)cc2)CCC1)NCc1ccco1`, the “% Inhibition” value was -4% and the Z score worked out at 0.42.
`COc1ccc([C@]23CCC(=O)N2c2ccccc2N3)cc1`: the “% Inhibition” value is on record as -15% and the Z score worked out at 1.61.
On to `CC(C)C(NCC1CCCC(C)(C)C1)C(=O)O` (stereo unspecified), for which the “% Inhibition” value is 28% and the Z score is on record as -3.11.
Turning to `COc1ccc(CNC(=O)[C@H]2CCCN(Cc3ccco3)C2)c(F)c1F`, the “% Inhibition” value is listed as -6% and the Z score is 1.1.
As for `CCCC1(CCC)NC(=O)N(CC(=O)NC)C1=O`, the “% Inhibition” value is on record as -6% and the Z score amounted to 0.55.
The corresponding values for `CN(C)c1cccc(C(=O)N2CCNC[C@H]2C(=O)N2CCOCC2)c1` are -6% and 0.82.
For `COCCC(=O)N1CC[C@H](c2nc3ccccc3o2)C1`, the “% Inhibition” value was -8% and the Z score was 1.23.
Consider `O=C(Nc1ccc(N2CCc3sccc3C2)cc1)NC1CCCC1`, for which the “% Inhibition” value is listed as 2% and the Z score is reported as -0.3.
In the case of `CC(C)(C)OCC(O)CN1CCCC1C(N)=O` (stereo unspecified), the “% Inhibition” value turned out to be 1% and the Z score is -0.08.
`CC1CC(C(=O)N2CC3(CN(C)C(=O)O3)C2)CC(C)(C)C1` (stereo unspecified): the “% Inhibition” value is reported as -5% and the Z score was 0.67.
As to `O=C(c1ccccc1)N1CCN(Cc2csc(-c3ccsc3)n2)CC1`, the “% Inhibition” value is given as -4% and the Z score is 0.76.
`COc1ccc([C@H]2C[C@H]3CC[C@@H](C2)N3C(=O)c2cn3cccnc3n2)cc1`: the “% Inhibition” value was 3% and the Z score is -0.59.
On the same counts, the results for `Cc1nc(N2CCC[C@H](C(=O)NCC3CCCCC3)C2)nc2cc(S(C)(=O)=O)ccc12` are 12% and -1.67.
In the case of `O=C(O)c1csc(CN2CCC(c3nc4c(s3)CCC4)CC2)c1`, the “% Inhibition” value was -13% and the Z score was found to be 1.35.
The corresponding values for `CCOc1ccc(NC(=O)N[C@H]2CCN(c3ccc(F)c(C)c3)C2=O)cc1` are 2% and -0.24.
For the compound `CO[C@H]1CN(C2CCN(C(=O)Nc3ccccc3F)CC2)[C@H]1c1ccncc1`, the “% Inhibition” value is -11% and the Z score was 1.41.
As for `O=C1CN(C(=O)c2ccc3c(c2)OCCO3)CCN1`, the “% Inhibition” value is 2% and the Z score is -0.44.
On to `O=C(NCc1ccncc1)C1(F)CCN(S(=O)(=O)c2cccc(F)c2)CC1`, for which the “% Inhibition” value is reported as -13% and the Z score is 1.63.
The corresponding values for `CN(C(=O)Cn1cnc2c(nnn2C)c1=O)c1ccccc1` are -4% and 0.58.
Turning to `C[C@@H](CC1CCCC1)C(=O)N1CCC(c2ncco2)CC1`, the “% Inhibition” value is reported as -8% and the Z score worked out at 0.76.
With `Cc1nc2c(c(N(C)C)n1)CCN(C(=O)c1cc(C)c3nc(N)sc3c1)C2`, the “% Inhibition” value is 1% and the Z score is reported as -0.17.
On the same counts, the results for `CCCCn1c(NC(=O)c2ccccc2)c(S(=O)(=O)c2ccc(C)cc2)c2nc3ccccc3nc21` are 0% and -0.03.
As for `Cc1ccc(C)c2sc(NCCN3CCOCC3)nc12`, the “% Inhibition” value was -4% and the Z score was determined as 0.42.
Take `Cn1cccc1CN(C(=O)c1c(F)cccc1F)C1CC1`: the “% Inhibition” value was -7% and the Z score is 1.43.
On the same counts, the results for `O=C(CCc1nc(O)c2ccccc2n1)Nc1cccc(S(=O)(=O)N2CCOCC2)c1` are -9% and 1.01.
The corresponding values for `c1ccc([C@@H](NCc2ccc3occc3c2)c2nnc[nH]2)cc1` are 1% and -0.07.
For the compound `O=C(c1cccnc1)N1CCc2cc3ccc2[C@@H]1c1cccc(c1)OCCCn1cc(nn1)CO3`, the “% Inhibition” value is listed as -20% and the Z score was determined as 2.5.
Regarding `CON(C)CCNCc1c(C)nc2sc(C)cn12`, the “% Inhibition” value is -10% and the Z score came out at 1.36.
Turning to `CCc1ccc(C(=O)N[C@@H](C)Cn2ccnc2)o1`, the “% Inhibition” value was determined as 12% and the Z score is -1.59.
For the compound `Cc1c(C(=O)N2CCCCC2)c(S(=O)(=O)N2CCC(C)CC2)c(C)n1C`, the “% Inhibition” value is reported as -15% and the Z score is 2.86.
For `CCc1nn(-c2ccc(OC)cc2)c(Oc2ccc(C)cc2)c1CCC(=O)NCCN1CCCC1`, the “% Inhibition” value is given as 0% and the Z score is recorded as -0.02.
`CNC(=O)CN1CCCCC1C1CCCN(C(=O)OC(C)(C)C)C1` (stereo unspecified): the “% Inhibition” value came out at 1% and the Z score was -0.16.
As for `COc1ccc(OC)c2c1cc1n2C[C@@](C)(C(=O)NC2CCCC2)N(CCN2CCOCC2)C1=O`, the “% Inhibition” value stood at 2% and the Z score was -0.39.
Regarding `CC(=O)Nc1ccc(NC(=O)C2CCN(S(=O)(=O)c3ccc(-c4cc(C)n[nH]4)o3)CC2)cc1`, the “% Inhibition” value is -8% and the Z score worked out at 1.33.
In the case of `CC1(C)CC(NC(=O)C2(c3ccccc3)CCC(=O)NC2)CCO1` (stereo unspecified), the “% Inhibition” value is on record as -5% and the Z score worked out at 0.68.
On to `CCN(Cc1cc2ccccc2nc1O)C(=O)C1CCCCC1`, for which the “% Inhibition” value was found to be 0% and the Z score is recorded as -0.01.
Take `O=C(Nc1ccc(Cl)cc1)N1CC(c2nc(-c3ncccn3)no2)C1`: the “% Inhibition” value is 5% and the Z score is on record as -1.01.
For `Cc1ccc(F)cc1C1(c2noc([C@@H]3CCCC[C@@H]3N)n2)CC1`, the “% Inhibition” value worked out at 0% and the Z score is recorded as -0.05.
`N#Cc1ccc(S(N)(=O)=O)c(F)c1`: the “% Inhibition” value is on record as -5% and the Z score came to 0.64.
